# Laboratory results reported in the antibiotic and cytotoxicity screens of Wong et al. (2023).
# Some of the results follow.
# Key:
# [1] = test system: HSkMC (human skeletal muscle cells); assay: cytotoxicity call (relative viability < 0.9); conditions: 10 µM
# [2] = test system: HepG2; assay: cytotoxicity call (relative viability < 0.9); conditions: 10 µM
# [3] = test system: S. aureus RN4220; assay: growth inhibition call (relative growth <= 0.2); conditions: 50 µM
SMILES,cytotoxicity call [1],cytotoxicity call [2],growth inhibition call [3]
COC(=O)c1c(CC[C@@H](CO)NC(=O)N[C@@H](Cc2ccccc2)Cn2cc(C3(O)CCCCC3)nn2)oc(C(C)=O)c1C(=O)OC,inactive,inactive,inactive
C[C@H]1CN([C@@H](C)CO)C(=O)c2cccc(NC(=O)C3CCOCC3)c2O[C@@H]1CN(C)C(=O)NC1CCCCC1,inactive,inactive,inactive
C[C@@H]1CCCCO[C@H](CN(C)Cc2ccc(C(F)(F)F)cc2)[C@H](C)CN([C@H](C)CO)C(=O)c2cc(NC(=O)Nc3cccc4ccccc34)ccc2O1,inactive,inactive,inactive
Cc1ccc(S(=O)(=O)Nc2ccc3c(c2)CC(=O)N([C@H](C)CO)C[C@@H](C)[C@H](CN(C)Cc2ccc(Cl)c(Cl)c2)O3)cc1,inactive,inactive,inactive
O=C(C[C@@H]1CC[C@H]2[C@@H](COC[C@H](O)CN2S(=O)(=O)c2ccccc2F)O1)NCc1ccc(Cl)c(Cl)c1,inactive,inactive,inactive
COCCNC(=O)C[C@H]1C[C@@H]2c3cc(NC(=O)Nc4ccc(C(F)(F)F)cc4)ccc3O[C@@H]2[C@@H](CO)O1,inactive,inactive,inactive
CCCNC(=O)N1C[C@H](C)[C@H](OC)CN(C)C(=O)c2cc(NS(=O)(=O)CC(F)(F)F)ccc2OC[C@@H]1C,inactive,inactive,inactive
C[C@@H]1CCCCO[C@@H](CN(C)Cc2ccc(C(=O)Nc3ccccc3N)cc2)[C@@H](C)CN([C@H](C)CO)C(=O)c2cc(NC(=O)Nc3ccc(C(F)(F)F)cc3)ccc2O1,active,inactive,inactive
CO[C@@H]1CN(C)C(=O)c2cc(NC(=O)Nc3ccccc3F)ccc2OC[C@@H](C)N(C(=O)Nc2ccccc2F)C[C@H]1C,inactive,inactive,inactive
COc1ccc(NC(=O)N(C)C[C@H]2OCCCC[C@H](C)Oc3ccc(NC(=O)Nc4ccccc4)cc3C(=O)N([C@@H](C)CO)C[C@H]2C)cc1,inactive,inactive,inactive
C[C@@H]1CCCCO[C@H](CN(C)C(=O)Nc2ccc3c(c2)OCO3)[C@@H](C)CN([C@@H](C)CO)C(=O)c2cc(NC(=O)c3ccccc3)ccc2O1,inactive,inactive,inactive
C[C@@H]1CCCCO[C@H](CN(C)C(=O)Nc2ccc(F)cc2)[C@H](C)CN([C@H](C)CO)C(=O)c2cc(NC(=O)Cc3ccccc3)ccc2O1,inactive,inactive,inactive
C[C@@H]1CCCCO[C@H](CN(C)C(=O)c2ccccc2)[C@@H](C)CN([C@@H](C)CO)C(=O)c2cc(NC(=O)Nc3ccc(C(F)(F)F)cc3)ccc2O1,inactive,inactive,inactive
COc1ccc(S(=O)(=O)Nc2ccc3c(c2)C(=O)N([C@H](C)CO)C[C@H](C)[C@H](CN(C)CC2CCCCC2)OCCCC[C@@H](C)O3)cc1,inactive,inactive,inactive
CN(C)C(=O)CSc1nnc(N)s1,inactive,inactive,inactive
COc1ccc(CN(C)C[C@@H]2OCCCC[C@H](C)Oc3ccc(NS(=O)(=O)c4ccc(F)cc4)cc3C(=O)N([C@H](C)CO)C[C@H]2C)cc1,inactive,inactive,inactive
OCc1cccnc1,inactive,inactive,inactive
C[C@@H]1CN([C@H](C)CO)C(=O)c2cc(NS(=O)(=O)c3cn(C)cn3)ccc2O[C@@H](C)CCCCO[C@@H]1CN(C)S(=O)(=O)c1ccccc1,inactive,inactive,inactive
CO[C@@H]1CN(C)C(=O)c2ccc(NC(=O)Nc3cccc(F)c3)cc2OC[C@H](C)N(C(=O)Nc2c(C)noc2C)C[C@@H]1C,inactive,inactive,inactive
C[C@H](CO)N1C[C@H](C)[C@H](CN(C)S(=O)(=O)c2cccc(F)c2)Oc2cc(Br)ccc2S1(=O)=O,inactive,inactive,inactive
C[C@@H]1CN([C@@H](C)CO)C(=O)c2cc(NC(=O)c3ccncc3)ccc2O[C@@H](C)CCCCO[C@H]1CN(C)C(=O)NC1CCCCC1,inactive,inactive,inactive
COc1ccc2c3c(n(c2c1)C)[C@@H](CO)N(CC1CCOCC1)C[C@]13CN(C1)C(=O)Cc1cccnc1,inactive,inactive,inactive
COc1ccc(S(=O)(=O)N[C@@H]2C=C[C@H](CC(=O)N3CCC(Cc4ccccc4)CC3)O[C@@H]2CO)cc1,inactive,inactive,inactive
Cc1noc(C)c1S(=O)(=O)Nc1ccc2c(c1)CC(=O)N([C@@H](C)CO)C[C@H](C)[C@@H](CN(C)S(=O)(=O)c1ccc(Cl)cc1)O2,inactive,inactive,inactive
